Screen size: about 310,000 compounds; about 14,000 (4.5%) showed an effect of 50% or more. The effect is printed as a negative number. Some of the results follow.
Target: human ether-à-go-go-related gene (hERG) potassium channel (human, UniProt Q12809)
Assay: primary screen, population patch clamp on CHO cells stably expressing hERG
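Further: peak tail current of the secondary pulse compared with the same well before compound.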

Sequence of human ether-à-go-go-related gene (hERG) potassium channel (Q12809 whole entry, looked up): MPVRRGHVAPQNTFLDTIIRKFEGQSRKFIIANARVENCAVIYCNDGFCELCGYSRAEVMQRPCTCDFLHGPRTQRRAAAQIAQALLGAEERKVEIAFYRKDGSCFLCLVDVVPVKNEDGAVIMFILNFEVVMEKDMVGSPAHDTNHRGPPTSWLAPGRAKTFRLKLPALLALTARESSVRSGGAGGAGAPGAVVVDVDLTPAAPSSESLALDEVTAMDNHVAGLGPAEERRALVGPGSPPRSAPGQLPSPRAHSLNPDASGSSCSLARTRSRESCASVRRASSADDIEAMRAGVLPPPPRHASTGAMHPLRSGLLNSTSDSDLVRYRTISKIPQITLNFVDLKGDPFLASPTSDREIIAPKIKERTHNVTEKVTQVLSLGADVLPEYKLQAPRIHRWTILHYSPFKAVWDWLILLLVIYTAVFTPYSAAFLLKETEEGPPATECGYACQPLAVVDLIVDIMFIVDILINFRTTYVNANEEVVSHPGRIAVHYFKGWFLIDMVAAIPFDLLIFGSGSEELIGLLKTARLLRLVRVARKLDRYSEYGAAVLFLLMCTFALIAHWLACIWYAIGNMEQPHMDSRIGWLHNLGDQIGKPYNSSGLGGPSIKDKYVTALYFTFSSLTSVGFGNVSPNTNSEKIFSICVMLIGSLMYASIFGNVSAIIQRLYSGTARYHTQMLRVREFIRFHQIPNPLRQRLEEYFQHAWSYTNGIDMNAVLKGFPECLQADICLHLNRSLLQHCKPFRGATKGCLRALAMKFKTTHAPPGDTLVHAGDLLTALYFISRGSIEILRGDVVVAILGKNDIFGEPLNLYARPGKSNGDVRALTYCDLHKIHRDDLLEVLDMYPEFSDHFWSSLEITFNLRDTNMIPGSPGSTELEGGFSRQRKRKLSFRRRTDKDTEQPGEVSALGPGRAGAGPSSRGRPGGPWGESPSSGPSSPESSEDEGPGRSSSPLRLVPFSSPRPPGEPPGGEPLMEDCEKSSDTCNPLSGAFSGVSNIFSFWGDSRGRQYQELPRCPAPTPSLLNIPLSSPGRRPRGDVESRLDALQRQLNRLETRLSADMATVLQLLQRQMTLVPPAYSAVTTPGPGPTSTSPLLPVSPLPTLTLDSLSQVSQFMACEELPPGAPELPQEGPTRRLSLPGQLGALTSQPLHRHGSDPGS

Going from CCCCn1cc2c(c1-c1cccc(C)c1)c(=O)n(C)c(=O)n2C to Cc1cccc(OCCn2c(=O)n(C)c3ccccc32)c1, the “hERG current change (%, negative = inhibition) at 10uM” value falls from -1.91% to -13.6%.

Going from CC(=O)NC1=NC(=O)/C(=C/c2cn(C(C)=O)nc2-c2ccccc2)S1 to COC(=O)c1ccc(NC(=O)CSc2nnc(-c3ccccc3)n2C)cc1, the “hERG current change (%, negative = inhibition) at 10uM” value rises from -12.1% to 14%.

First: COc1ccccc1NC(=O)c1ccc2c(O)c(S(=O)(=O)c3ccccc3)c(=O)[nH]c2c1
Second: COc1ccccc1N(Cc1ccccc1)S(=O)(=O)c1cccc(C(=O)Nc2cc(C)ccn2)c1
The “hERG current change (%, negative = inhibition) at 10uM” value of the first is lower: 9.68% for the first, 22.6% for the second.

Compared with Cc1cccc([C@@H]2[C@@H]3C(=O)N(Cc4ccccc4)C(=O)[C@@H]3[C@]3(C)C(=O)N(c4ccc(C(F)(F)F)cc4)C(=O)N23)c1, O=C(O)c1ccc(C2Nc3ccccc3C(=O)N2Cc2ccccc2)cc1 (stereo not shown) is lower in “hERG current change (%, negative = inhibition) at 10uM” value: 8.43% for the first, 7.71% for the second.

Compared with O=C(NC(=S)Nc1ncc(Br)cc1Br)c1ccccc1, CC1CC(C)CN(S(=O)(=O)c2ccc(NC(=S)NC(=O)c3ccccc3)cc2)C1 (stereo not shown) is higher in “hERG current change (%, negative = inhibition) at 10uM” value: 2.33% for the first, 8.01% for the second.

Compared with O=C(c1cccn2c(=O)c3ccccc3nc12)N1CCC2(CC1)OCCO2, O=C(c1ccoc1)N1CCC2(CC1)Oc1ccc(F)cc1C(=O)C21CC(c2cccnc2)=NO1 (stereo not shown) is lower in “hERG current change (%, negative = inhibition) at 10uM” value: 5.98% for the first, -48.4% for the second.

Going from CCCCNC(=O)c1cc(-c2ccc(OC)cc2)on1 to COc1ccc(CNC(=O)CS(=O)(=O)Cc2nc(-c3cccc(OC)c3)oc2C)cc1, the “hERG current change (%, negative = inhibition) at 10uM” value falls from -11.3% to -32.4%.

First: CCN1CCN(Cc2c(O)c(Cl)cc3c(C)cc(=O)oc23)CC1
Second: COc1ccc(-c2c(C)oc3c(CN4CCOCC4)c(O)ccc3c2=O)cc1
The “hERG current change (%, negative = inhibition) at 10uM” value of the first is lower: -6.86% for the first, 7.31% for the second.

First: O=C(COc1ccc(S(=O)(=O)NC2CCCCC2)cc1)NC1CC1
Second: Cc1ccc(CNC(=S)NC2CCCCC2)cc1
The “hERG current change (%, negative = inhibition) at 10uM” value of the first is higher: 3.4% for the first, -0.336% for the second.

Compared with CCO[C@H]1OC(C(N)=O)=C[C@@H](C(C)(C)C)[C@@H]1CCCO, CCCCn1c(N)c(N(CC(C)C)C(=O)c2cnc(C)cn2)c(=O)[nH]c1=O is lower in “hERG current change (%, negative = inhibition) at 10uM” value: 20.4% for the first, 0.974% for the second.

Going from CCc1ncc(CN2CCCC(C(=O)Nc3ccc(-c4cscn4)cc3)C2)cn1 (stereo not shown) to Cc1ccc(NC(=O)C2CCCN(S(=O)(=O)c3c(C)noc3C)C2)cc1F (stereo not shown), the “hERG current change (%, negative = inhibition) at 10uM” value rises from -4.98% to 5.62%.

Compared with Cc1ccc2nc3c(c(Nc4ccc5c(c4)OCCO5)c2c1)CCC3.Cl, O=C(Nc1ccc2c(c1)OCCO2)c1ccc(NC(=O)C2CCCO2)cc1 (stereo not shown) is higher in “hERG current change (%, negative = inhibition) at 10uM” value: -51.7% for the first, 14.1% for the second.

Going from COC(=O)N/N=C/c1cn(CCOc2ccc(OC)cc2)c2ccccc12 to COc1ccc(NC(=O)c2cc(C)nc3ccccc23)c(OC)c1, the “hERG current change (%, negative = inhibition) at 10uM” value falls from 16.8% to 9.72%.

Going from CCOC(=O)C1CCN(c2cc3c(cc2NC(=O)c2ccc(OC)c(OC)c2)n(C)c(=O)n3C)CC1 to NC(=O)CC(NC(=O)c1ccccc1)c1ccc(N2CCC(Br)CC2)c([N+](=O)[O-])c1 (stereo not shown), the “hERG current change (%, negative = inhibition) at 10uM” value falls from 21.5% to -5.94%.

First: CCOc1ccc(NC(=O)c2c(NC(=O)CN3CCCC3)sc3c2CCC3)cc1
Second: CCOC(=O)N1CCN(C(=O)COc2ccc3oc4c(c3c2)CCCC4)CC1
The “hERG current change (%, negative = inhibition) at 10uM” value of the first is higher: -3.84% for the first, -50.6% for the second.

Going from O=C(NC(=S)Nc1ccccc1)C1CCCCC1 to CCOc1ccccc1N1CCN(C(=O)NC2CCCCC2)CC1, the “hERG current change (%, negative = inhibition) at 10uM” value falls from 9.2% to -3.85%.

First: Cc1cccnc1NC(=O)c1ccccc1NC(=O)C(C)(C)C
Second: COC(=O)Nc1cc(C)nc2ccccc12
The “hERG current change (%, negative = inhibition) at 10uM” value of the first is lower: 4.23% for the first, 5.13% for the second.

Going from Cc1nnc(SCC(=O)Nc2c(Cl)cccc2Cl)n(N)c1=O to CCOC(=O)c1c(C)[nH]c(C)c1C(=O)CSc1nnc(-c2ccncc2)n1C, the “hERG current change (%, negative = inhibition) at 10uM” value falls from 13.3% to 4.24%.

First: COC(=O)c1cscc1NC(C)=O
Second: Cc1nc(C(=O)NNC(=O)Nc2ccc(Cl)cc2)cs1
The “hERG current change (%, negative = inhibition) at 10uM” value of the first is higher: 20.7% for the first, -0.711% for the second.

Going from Cc1c(C(=O)Nc2ccccn2)sc2nc3n(c(=O)c12)CCC3 to COc1cc(=O)[nH]c(SCC(=O)Nc2nc3c(s2)CCCC3)n1, the “hERG current change (%, negative = inhibition) at 10uM” value falls from 7.27% to 1.57%.

First: CCn1c(C)nc2cc(C(=O)NNC(=S)Nc3ccc(Cl)cc3)ccc21
Second: COc1ccc(C2COC(=O)C2=N)c(NC(=O)c2ccc(Cl)cc2)c1 (stereo not shown)
The “hERG current change (%, negative = inhibition) at 10uM” value of the first is higher: 10.4% for the first, -26.2% for the second.

First: COc1ccc(OC)c(N(CC(=O)N2CCc3ccccc3C2)S(C)(=O)=O)c1
Second: COc1ccccc1C(=O)Nc1ccc2c3c(cccc13)CC2
The “hERG current change (%, negative = inhibition) at 10uM” value of the first is lower: -10.4% for the first, -8.49% for the second.

Compared with CC(C)(CNC(=O)c1cc([N+](=O)[O-])ccc1N1CCC(Cc2ccccc2)CC1)N1CCOCC1, Cl.O=S(=O)(c1ccc2ccccc2c1)N(CC(O)CN1CCOCC1)c1ccccc1 (stereo not shown) is higher in “hERG current change (%, negative = inhibition) at 10uM” value: -48.4% for the first, -47.9% for the second.

Going from CC1CCc2c(nc3ncnn3c2N2CC(C)OC(C)C2)C1 (stereo not shown) to CC1CCN(CCCNC(=O)CCCNC(=O)Cn2cnc3sc4c(c3c2=O)CCCC4)CC1, the “hERG current change (%, negative = inhibition) at 10uM” value rises from 7.65% to 12.3%.

Compared with O=C1NCC(COc2ccc(Cl)cc2)O1 (stereo not shown), COc1ccc(-c2csc(N(Cc3ccccc3)C(=O)COc3ccc(Cl)cc3)n2)cc1 is lower in “hERG current change (%, negative = inhibition) at 10uM” value: 48.4% for the first, 4.31% for the second.

Going from CCOCC(O)CNC(=O)c1ccc(OC2CCN(C(=O)c3cccnc3)CC2)cc1 (stereo not shown) to CC(=O)Nc1ccc(S(=O)(=O)N2CCC(NC(=O)C(Cc3cccn3C)NC(C)=O)CC2)cc1 (stereo not shown), the “hERG current change (%, negative = inhibition) at 10uM” value falls from 23.9% to 1.63%.

Compared with CCOC(=O)N1CCN(S(=O)(=O)N2CCCC(C(=O)NCCCN3CCCCC3CC)C2)CC1 (stereo not shown), O=C(O)C1C2CCC(C2)C1C(=O)NCCC1=CCCCC1 (stereo not shown) is higher in “hERG current change (%, negative = inhibition) at 10uM” value: 8.29% for the first, 14.9% for the second.

Going from COc1cccc(NC(=O)c2ncc(Cl)c(Cl)c2Cl)c1 to CCOc1ccc(NC(=S)NC(=O)c2c(Cl)cnn2CC)c([N+](=O)[O-])c1, the “hERG current change (%, negative = inhibition) at 10uM” value rises from 8.12% to 19.8%.

Going from O=C(COC(=O)c1ccc(NS(=O)(=O)c2ccc3c(c2)OCCO3)cc1)NC1CC1 to O=C(O)C1CC=CCC1C(=O)NCc1ccc2c(c1)OCO2 (stereo not shown), the “hERG current change (%, negative = inhibition) at 10uM” value rises from -1.56% to -1.3%.

Compared with Clc1cc(Br)ccc1OCCOCCN1CCOCC1, COc1ccc(C2(CNC(C)=O)CCOCC2)cc1OC is higher in “hERG current change (%, negative = inhibition) at 10uM” value: -36.7% for the first, 22.4% for the second.

First: Cn1cc(CNCc2ccc(-n3cccn3)cc2)c(-c2ccccc2F)n1
Second: CCOc1cc(CNc2ccc(O)cc2)cc(Br)c1OCc1ccccc1F
The “hERG current change (%, negative = inhibition) at 10uM” value of the first is lower: -62.2% for the first, 3.98% for the second.

Compared with O=C(NCc1ccc2c(c1)OCO2)c1cc2n(n1)C(C(F)(F)F)CC(c1ccc3c(c1)OCO3)N2 (stereo not shown), O=C(Cc1ccc(Br)cc1)NCCc1ccc(Cl)cc1Cl is lower in “hERG current change (%, negative = inhibition) at 10uM” value: 3.58% for the first, -0.437% for the second.

Compared with CCc1nc(SCc2nc3ccccc3[nH]2)c2oc3ccccc3c2n1, CCOC(=O)c1nc(C)nc(Sc2n[nH]c(-c3ccccc3)n2)c1C is lower in “hERG current change (%, negative = inhibition) at 10uM” value: 6.59% for the first, -6.93% for the second.

Going from CCOC(=O)C1=NN(C(=O)Cc2ccccc2)C(O)(c2ccc(Cl)cc2)C1 (stereo not shown) to CC(=O)N1N=C2/C(=C/c3ccccc3)CCCC2C1c1ccccc1 (stereo not shown), the “hERG current change (%, negative = inhibition) at 10uM” value rises from -47.6% to -10.5%.

Compared with CCC(Sc1ccc2nnc(-c3cccnc3)n2n1)C(=O)OC (stereo not shown), CC(=O)Nc1nonc1-c1nc2ccccc2n1CC1CC1 is higher in “hERG current change (%, negative = inhibition) at 10uM” value: -47% for the first, -6.11% for the second.

Compared with Cc1nc(C)c(C(=O)N2CCCC(C(=O)c3ccc(Cl)cc3C)C2)s1 (stereo not shown), CCOC(=O)c1sc(NC(=O)CSc2n[nH]c(C)n2)nc1C is higher in “hERG current change (%, negative = inhibition) at 10uM” value: -23% for the first, 14.5% for the second.

First: COc1ccc(/C=N/n2cnnc2)cc1COc1ccccn1
Second: OCCNc1nnc(-c2ccccc2)c(-c2ccccc2)n1
The “hERG current change (%, negative = inhibition) at 10uM” value of the first is lower: -6.33% for the first, 8.35% for the second.

Compared with CSc1ccc(CN2CCN(C(C)C)C(CCO)C2)cc1 (stereo not shown), CC(C)c1ccc(NC(=O)C2C3C=CC4(O3)C2C(=O)N(CCN2CCOCC2)C4C(=O)NC2CCCCC2)cc1 (stereo not shown) is higher in “hERG current change (%, negative = inhibition) at 10uM” value: -24% for the first, 15.3% for the second.

Compared with O=C(c1ccc(-c2ccc([N+](=O)[O-])cc2)o1)N1CCN(S(=O)(=O)c2cccs2)CC1, CN1CCN(S(=O)(=O)c2cccc(C(=O)Nc3nccs3)c2)CC1 is higher in “hERG current change (%, negative = inhibition) at 10uM” value: -27.3% for the first, -1.22% for the second.

Going from CC(C#N)(Cc1ccccc1)Nc1ccccc1 (stereo not shown) to CN(C)CCC#CC(O)(c1ccccc1)c1ccccc1, the “hERG current change (%, negative = inhibition) at 10uM” value falls from 17.6% to -32.1%.

Going from C/C(=N\Nc1ccc([N+](=O)[O-])cc1)c1cc2ccccc2o1 to O=C(O)c1ccc(N=Nc2c(O)[nH]c3ccccc23)cc1, the “hERG current change (%, negative = inhibition) at 10uM” value rises from 1.78% to 8.76%.

First: CCN(CC)CC(=O)Nc1c(Br)ccc2c1OCO2.Cl
Second: CS(=O)(=O)N(CC(=O)Nc1ccc(F)cc1F)C1CCCCC1
The “hERG current change (%, negative = inhibition) at 10uM” value of the first is higher: 10% for the first, 5.36% for the second.

Compared with Cc1n[nH]c(=S)n1-c1ccccc1, CCCn1c(C2CCCN2c2nc(-c3cccc(Br)c3)cs2)nc2ccccc21 (stereo not shown) is lower in “hERG current change (%, negative = inhibition) at 10uM” value: 17.2% for the first, 1.54% for the second.

Compared with CC1=C(C)CC2C(C1)C(=O)c1ccc(Br)cc1S2(=O)=O (stereo not shown), CCCc1nnc(SCC(=O)N2CCCCC2C)n1CC (stereo not shown) is higher in “hERG current change (%, negative = inhibition) at 10uM” value: -16% for the first, 13.6% for the second.

From paper PMC4336329 (PLoS ONE, 2015)
